Data reported in PubChem BioAssay AID624296 (National Center for Advancing Translational Sciences (NCATS), 2012).
Hit rate of the full screen: of about 350,000 compounds, about 9,900 (2.8%) were called active. This list was built around the results that the source calls inconclusive (neither active nor inactive); the mix of calls is not that of the screen. The call rests on the fitted dose curve; in most records, active means well fitted activation curve with a large enough effect; inconclusive means small, poorly fitted or top-dose-only effect; inactive means no such curve, though single readings can be large or run the other way. Potencies of inconclusive entries are left out as doubtful fits.

experiment: A quantitative high throughput screen for small molecules that induce DNA re-replication in MCF 10a normal breast cells.; further: nearly all actives have a fitted effect of over 50% in size; on activity, positive = re-replication: % of control where 0% means no effect; settings: MCF 10A DNA re-replication, Hoechst nuclear intensity, 48 h; activity, positive = re-replication: at 46.1 µM (top of the series)
Potency means the concentration at half of the fitted maximal effect; tags describe the fitted curve by direction and shape.

Structure (SMILES) | Potency | activity, positive = re-replication
COC(=O)c1ccc(OCCOc2ccccc2C)cc1 | inconclusive [activator, partial curve, poor fit] | –
CCc1ccc(NC(=O)CSc2nc(=O)n(CCCN3CCOCC3)c3c2CCC3)cc1 | inconclusive [activator, single point] | –
CCOC(=O)C1Nc2ccc(C(F)(F)F)cc2C2c3ccccc3CC12 (centres undefined) | inconclusive [activator, partial curve, poor fit] | –
CN1CCC(N(C)CC(=O)Nc2ccccc2N2CCOCC2)CC1 | inconclusive [activator, single point] | –
Cc1onc(-c2ccccc2)c1C(=O)n1nnc2ccccc21 | inconclusive [activator, single point] | –
O=C(NCc1ccc2c(c1)OCO2)c1cc(-c2cc(Cl)ccc2O)n[nH]1 | inconclusive [activator, single point] | –
CCN(CC(=O)NCc1cccs1)C(=O)/C=C/c1cccc(Br)c1 | inconclusive [activator, partial curve, poor fit] | –
COc1cc(NC(c2ccccc2)c2ccccc2)cc(OC)c1OC | – | inactive: -1.82%
Cc1cc(C(=O)COc2cc(F)ccc2[N+](=O)[O-])c(C)n1CC1CCCO1 (centres undefined) | inconclusive [activator, single point] | –
CCCc1cc(N2CCN(c3ccccn3)CC2)n2nc(C)c(-c3ccccc3)c2n1 | inconclusive [activator, single point] | –
COc1cc(C2NC(=O)NC(c3ccccc3)=C2C(C)=O)c(Cl)cc1OCC(=O)O (centres undefined) | – | inactive: 7.16%
Nc1c(C(=O)N2CCCCC2)sc(=S)n1-c1ccccc1 | inconclusive [activator, partial curve, poor fit] | –
CCN(CC)c1ccc(-c2nn3c(-c4n[nH]c5c4CCC5)nnc3s2)cc1 | active: 1.46 µM | –
O=C(COc1ccccc1)c1cn(CC(=O)N2CCCC2)c2ccccc12 | – | inactive: -1.74%
COC(=O)c1ccc(COC(=O)c2cccnc2Cl)cc1 | – | inactive: -4.04%
CCCCCC(=O)O[C@]1(C(C)=O)CC[C@H]2[C@@H]3CCC4=CC(=O)CC[C@]4(C)[C@H]3CC[C@@]21C | inconclusive [activator, single point] | –
CCC(NC(=O)C(C)NC)C(=O)N1CCCC1C(=O)NC1CCCc2ccccc21 (centres undefined) | inconclusive [activator, full curve, poor fit] | –
Cc1ccc(Cn2nc(C)c(NC(=O)c3cc(-c4ccc5c(c4)OCO5)on3)c2C)cc1 | inconclusive [activator, partial curve, poor fit] | –
O=C(Nc1nc2ccccc2s1)C1c2ccccc2Oc2ccccc21 | inconclusive [activator, single point] | –
O=C(NCc1ccc(F)cc1)C1CCCN(S(=O)(=O)c2ccc(Br)s2)C1 (centres undefined) | inconclusive [activator, partial curve, poor fit] | –
O=C(CN(c1cccc(C(F)(F)F)c1)S(=O)(=O)c1ccc(Cl)c([N+](=O)[O-])c1)NCc1ccccc1 | active: 3.66 µM | –
CCCCC(=O)Nc1ccc(NC(=O)c2ccccc2[N+](=O)[O-])cc1OC | – | inactive: -2.88%
O=C(COC(=O)c1ccc(Cl)c(S(=O)(=O)N2CCN(c3ccc(F)cc3)CC2)c1)Nc1cccc(Cl)c1 | inconclusive [activator, single point] | –

Structure (SMILES) | Potency | activity, positive = re-replication
COc1ccc(C2C(C(=O)Nc3ccccc3OC)=C(C)Nc3ncnn32)cc1 (centres undefined) | – | inactive: 0.15%
CC(=O)Oc1ccc(N(C(C)=O)S(=O)(=O)c2ccc(C)cc2C)c2ccccc12 | inconclusive [activator, single point] | –
C=C(Cl)COc1ccc2c(CCCC)cc(=O)oc2c1 | – | inactive: 24.1%
O=C(NC(=S)N1CCOCC1)c1ccc([N+](=O)[O-])cc1 | – | inactive: -98%
CCN(CC)c1ccc(C(=O)OCC(=O)NC(C)(C)C)cc1 | inconclusive [activator, partial curve] | –
Cc1nc2ccccc2n1CC(=O)OCC(=O)Nc1ccc2c(c1)OCCO2 | – | inactive: -0.685%
CC(C)(C)[C@@H]1CCC(=O)N(CC[C@H](Sc2ccccc2)c2ccccc2)CC1 | inconclusive [activator, partial curve, poor fit] | –
CC(NC(=S)NC1CCCCC1)c1ccc(C(C)(C)C)cc1 (centres undefined) | active: 5.8 µM | –
OCCN1CCN(c2nc(-c3ccccc3)c3cc(Cl)ccc3n2)CC1 | inconclusive [activator, full curve, poor fit] | –
COc1cccc(C2NC(c3cccc(OC)c3O)C(C)C(=O)C2C)c1O (centres undefined) | inconclusive [activator, partial curve, poor fit] | –
O=C(NCc1ccc(F)cc1)C(=O)Nc1nc(C23CC4CC(CC(C4)C2)C3)cs1 | active: 18.4 µM | –
COc1cc(C#Cc2c(-c3cncn3C)n(C)c3ccc(-c4ccc5[nH]ccc5c4)cc23)cc(OC)c1 | – | inactive: 11.2%
Cc1cccc(Nc2nc(N)c([N+](=O)[O-])c(NCc3ccco3)n2)c1 | inconclusive [activator, single point] | –
CSCCC1NC(=O)N(CC(=O)N2CCc3ccccc3C2)C1=O (centres undefined) | – | inactive: 1.44%
CCOC(=O)C1CCCN(C(=O)c2cc(-c3ccccc3)nc3ccccc23)C1 (centres undefined) | inconclusive [activator, partial curve, poor fit] | –
CCOC(=O)NC1CCc2cc(OC)c(OC)c(OC)c2-c2ccc(SC)c(=O)cc21 (centres undefined) | – | inconclusive: 97.4% [activator]
COc1ccc(NC(=O)CNC(c2ccccc2)c2ccccc2)cc1Cl | inconclusive [activator, single point] | –
O=C(NCc1ccccc1Cl)C(=O)c1cn(CC(=O)N2CCOCC2)c2ccccc12 | inconclusive [activator, single point] | –
COc1ccccc1C(=O)NC(=O)COC(=O)c1cnc(C)cn1 | – | inactive: -0.601%
CCCCNC(=O)N1CCCC(C(=O)c2cc(C)c(OC)c(C)c2)C1 (centres undefined) | – | inactive: -2.93%
Cc1nc(N)c(C#N)c(-c2ccc3c(c2)OCO3)c1C | inconclusive [activator, partial curve, poor fit] | –
Cc1cc(OCCOCCN(C)CCO)cc(C)c1Cl | inconclusive [activator, single point] | –
Cc1cc(=O)oc2cc(O)cc(OCc3ccccc3)c12 | active: 20.6 µM | –

Structure (SMILES) | Potency | activity, positive = re-replication
CCCCC(CC)CNC(=O)C(=O)C1C(=O)Nc2ccccc21 (centres undefined) | inconclusive [activator, partial curve, poor fit] | –
Clc1ccc2c(c1)C(N1CCNCC1)Cc1ccccc1S2 (centres undefined) | inconclusive [activator, single point] | –
O=C(Cn1ccc(C(F)(F)F)n1)N/N=C/c1ccc(N2CCOCC2)cc1 | – | inactive: 11%
CCOC(=O)c1cc(CC)sc1/N=C/c1c(O)ccc2ccccc12 | inconclusive [activator, partial curve, poor fit] | –
CN1CC(c2ccc(Cl)c(Cl)c2)[C@@]2(COc3ccccc3C2=O)[C@@]12C(=O)Nc1ccccc12 (some centres undefined) | active: 16.4 µM | –
COc1cc(OC)c2c(-c3ccccc3)cc(=O)oc2c1C(CCN1CCCCC1)c1ccc(N(C)C)cc1 (centres undefined) | – | inactive: 9.08%
CN(C)c1nc(-c2cccs2)cc(C(F)(F)F)c1C#N | inconclusive [activator, partial curve, poor fit] | –
COc1cccc(-c2sc3ccc(OC)cc3c2C#CCC(C)O)c1 (centres undefined) | inconclusive [activator, single point] | –
CCC(=O)N(Cc1cc2c(C)ccc(C)c2[nH]c1=O)C1CCCCC1 | – | inactive: -3.41%
CC1CCc2sc(C(=O)OCC(=O)NCc3ccccc3)cc2C1 (centres undefined) | – | inactive: 5.62%
COc1ccc(/C=N/NC(=O)c2ccccc2OC)cc1COc1ccccc1[N+](=O)[O-] | inconclusive [activator, single point] | –
COc1ccc(CN2CCC(C(=O)Nc3ccc(Oc4ccccc4)nc3)CC2)cc1F | inconclusive [activator, single point] | –
Cc1ccc(C)c(-c2nnc(NC(=O)CCS(=O)(=O)c3ccc(F)cc3)o2)c1 | inconclusive [activator, single point] | –
O=C(Nc1ccccc1)N1CCc2ccccc2C1 | – | inactive: 6.82%
O=C(CC(=O)Nc1cc(Cl)ccc1Cl)Nc1cc(Cl)ccc1Cl | inconclusive [activator, partial curve, poor fit] | –
O=C(Nc1ccc(Br)cn1)c1coc(=O)c(Br)c1 | inconclusive [activator, full curve, poor fit] | –
CCSc1ccccc1C(=O)NCc1ccc(OC)cc1 | inconclusive [activator, single point] | –
O=C(Nc1ccccn1)C1CCN(S(=O)(=O)c2cccs2)CC1 | – | inactive: -5.39%
CNC(=S)N/N=C1\C(=O)c2cccc3cccc1c23 | active: 10 µM | –
COc1ccc(NC(=O)c2sc3nc(N4CCCC4)c4c(c3c2N)CC(C)(C)OC4)cc1 | – | inactive: -8.69%
CC(=O)/C=C1/C(=O)Nc2ccccc21 | inconclusive [activator, single point] | –
Cc1ccc(C(=O)CSC2=C(C#N)C(c3ccco3)C3=C(CC(C)(C)CC3=O)N2)cc1 (centres undefined) | inconclusive [activator, partial curve, poor fit] | –
COc1ccccc1NC(=O)c1oc2ccc(C)cc2c1C | inconclusive [activator, partial curve, poor fit] | –
